The text below walks through data of paper PMC4336329 (PLoS ONE, 2015).

Screen size: about 310,000 compounds; about 2,200 (0.71%) showed an effect of 50% or more. Effects have a minus sign here. The list shows a part of the results. Where a SMILES comes first, the peptide text is derived from it. The star is where a group is joined. OPac = O=C(CO*)c1ccccc1; Bz = O=C(c1ccccc1)*

This assay deals with human ether-à-go-go-related gene (hERG) potassium channel (human, UniProt Q12809). Put plainly: primary screen, population patch clamp on CHO cells stably expressing hERG.
Chain of human ether-à-go-go-related gene (hERG) potassium channel (Q12809 whole entry, looked up): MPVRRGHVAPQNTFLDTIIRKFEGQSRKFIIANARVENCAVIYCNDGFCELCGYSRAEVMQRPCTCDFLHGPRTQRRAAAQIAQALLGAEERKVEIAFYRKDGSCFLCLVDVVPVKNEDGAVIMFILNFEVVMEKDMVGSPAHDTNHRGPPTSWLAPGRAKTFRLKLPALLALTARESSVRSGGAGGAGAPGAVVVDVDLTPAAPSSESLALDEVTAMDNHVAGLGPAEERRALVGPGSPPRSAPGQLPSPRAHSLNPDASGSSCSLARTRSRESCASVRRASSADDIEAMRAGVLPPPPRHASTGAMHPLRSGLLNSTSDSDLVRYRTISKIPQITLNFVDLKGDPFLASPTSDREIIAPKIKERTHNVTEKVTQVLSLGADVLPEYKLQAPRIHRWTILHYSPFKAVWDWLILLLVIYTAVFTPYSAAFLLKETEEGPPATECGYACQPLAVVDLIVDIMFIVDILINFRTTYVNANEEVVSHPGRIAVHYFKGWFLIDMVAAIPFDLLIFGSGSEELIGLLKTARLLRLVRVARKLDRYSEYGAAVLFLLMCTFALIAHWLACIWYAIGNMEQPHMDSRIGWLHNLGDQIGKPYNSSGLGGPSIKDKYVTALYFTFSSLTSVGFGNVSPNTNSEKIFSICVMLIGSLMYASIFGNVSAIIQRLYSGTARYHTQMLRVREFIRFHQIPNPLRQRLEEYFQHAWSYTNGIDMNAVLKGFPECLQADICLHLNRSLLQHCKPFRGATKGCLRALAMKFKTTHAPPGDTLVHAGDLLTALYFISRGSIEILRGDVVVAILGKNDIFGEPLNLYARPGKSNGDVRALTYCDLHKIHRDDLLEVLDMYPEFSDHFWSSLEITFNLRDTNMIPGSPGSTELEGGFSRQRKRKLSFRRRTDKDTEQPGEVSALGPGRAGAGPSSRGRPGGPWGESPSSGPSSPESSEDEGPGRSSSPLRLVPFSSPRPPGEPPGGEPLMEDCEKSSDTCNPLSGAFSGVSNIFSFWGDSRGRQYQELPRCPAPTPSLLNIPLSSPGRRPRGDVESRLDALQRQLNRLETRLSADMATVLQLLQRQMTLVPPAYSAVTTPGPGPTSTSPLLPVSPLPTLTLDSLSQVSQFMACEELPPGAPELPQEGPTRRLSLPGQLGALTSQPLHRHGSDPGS
Take `O=C(O)c1cccc(NC(=O)c2ccccc2NC(=O)c2ccccc2F)c1`: the “hERG current change (%, negative = inhibition) at 1uM” value came out at 13.1%.

Turning to `CC1=CC(c2ccc(Cl)cc2)n2nc(NS(=O)(=O)c3ccc(C)cc3)nc2N1` (centres unmarked), the “hERG current change (%, negative = inhibition) at 1uM” value worked out at 5.28%. For the molecule `O=C(CNC(=O)c1ccccc1)NCC(=O)OCC(=O)c1ccccc1` (Bz-Gly-Gly-OPac), the “hERG current change (%, negative = inhibition) at 1uM” value was found to be 1.52%. To `C/C(=N\Nc1nc(-c2ccc(C)cc2C)cs1)c1cc2ccccc2oc1=O` belongs 14.4%. Then `CC(C)(C)S(=O)(=O)c1cnc(-c2ccc(Cl)cc2)nc1N`, with 9.11%.

Turning to `CC1=CC2=NC(=O)CC(C)(C(=O)N(CC(=O)NC3CCCC3)Cc3ccc(Cl)cc3)N2C=C1` (centres unmarked), the “hERG current change (%, negative = inhibition) at 1uM” value is given as 5.28%. Then `CC(=O)c1c(C)[nH]c(C(=O)Nc2c(C)n(C)n(-c3ccccc3)c2=O)c1C`, with 16.4%; and `CSCCC(Nc1ccc(S(=O)(=O)N2CCOCC2)cc1[N+](=O)[O-])C(=O)OCC(=O)NCC(C)C` (centres unmarked), with 4.99%; and `CN(Cc1ccc(C(C)(C)C)cc1)C(=O)Cc1ccc(S(=O)(=O)N2CCOCC2)s1`, with 9.07%. Regarding `CN1CC(=O)Nc2ccc([N+](=O)[O-])cc2C1=O`, the “hERG current change (%, negative = inhibition) at 1uM” value is listed as 17.6%. To `CCOc1ccccc1N(CC(=O)NC1CCCCC1)S(=O)(=O)c1ccccc1` belongs -0.305%; to `CCC(C)(C)N1CC(=O)N(Cc2ccccc2)C(c2ccc(OC)cc2)C1=O` (centres unmarked), -7.3%.

Consider `COc1cc(C(=O)N2CCc3ccccc32)cc(OC)c1OC`, for which the “hERG current change (%, negative = inhibition) at 1uM” value is on record as 16.1%. Then `Cc1ccc(S(=O)(=O)N(C(=O)c2ccncc2)c2ccc(OC(=O)c3ccncc3)cc2)cc1`, with 12.1%. For the molecule `COc1ccc(CCN=C(N)C(C)c2ccccc2)cc1OC.Cl` (centres unmarked), the “hERG current change (%, negative = inhibition) at 1uM” value turned out to be 10.4%. To `Cl.O=C(O)CCNc1nc(-c2ccccc2)nc2ccccc12` belongs 7.06%; to `COCCNC(=O)c1ccc(CN2CCc3ccccc3C2)cc1`, 10.4%.

Turning to `O=C(CSc1nc2c(sc3ccccc32)c(=O)n1CCc1ccccc1)NCc1ccco1`, the “hERG current change (%, negative = inhibition) at 1uM” value was determined as 2.54%. Regarding `CCN(CC)CC(O)COCCC12CC3CC(CC(C3)C1)C2.Cl` (centres unmarked), the “hERG current change (%, negative = inhibition) at 1uM” value worked out at 3.76%. To `CC(C)c1ccccc1OCC(=O)Nc1ccccc1C(=O)N1CCOCC1` belongs -11.3%; to `CO/N=C/c1ccc(Oc2ccc(C)cc2)nc1`, 17.5%. Turning to `Cn1c(SCC(=O)N/N=C/c2ccncc2)nc2ccccc21`, the “hERG current change (%, negative = inhibition) at 1uM” value stood at 4.27%.

For `Cc1ccc(C(=O)Nc2cccc(Oc3ccccc3)c2)o1`, the “hERG current change (%, negative = inhibition) at 1uM” value is given as 2.22%.
